By IC50 is meant the dose at which the fit gives 50% viability; where the fit passes the top or lowest dose, that dose stands as a limit. AUC is the area under the same curve over the 256-fold range up to the top dose, as a fraction; the more sensitive the line, the further below 1. Any top dose called inferred was derived from the fitted curves, not read from the paper.
How the values were obtained:
Experiment in all cases: Viability of human cancer cell lines after 72 h of drug (GDSC screen)
S-Trityl-L-cysteine = compound: N[C@@H](CSC(c1ccccc1)(c1ccccc1)c1ccccc1)C(=O)O [S-Trityl-L-cysteine]; conditions: top dose 5.12 µM; top dose inferred
Experimental: (§1)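 Human cancer cell lines in 384-well plates, medium with 10% serum, drug for 72 h over a 256-fold dose range (nine 2-fold or five 4-fold steps up to the top dose). Adherent lines were fixed and stained with the nucleic acid dye Syto60, suspension lines read with resazurin; signal relative to control wells, capped at 0 and 100%. One two-parameter sigmoid per drug and line, fitted in a mixed model over all curves with the slope shared within a line.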

AG-014699 = compound: CNCc1ccc(-c2[nH]c3cc(F)cc4c3c2CCNC4=O)cc1 [AG-014699]; conditions: top dose 5 µM; top dose inferred
Experimental: as §1

QL-XI-92 = compound: C=CC(=O)Nc1cc(NC(=O)c2ccc(C)c(NC(=O)c3ccno3)c2)cc(C(F)(F)F)c1 [QL-XI-92]; conditions: top dose 10.24 µM; top dose inferred
Experimental: as §1

Vinorelbine = compound: CCC1=C[C@@H]2CN(C1)Cc1c([nH]c3ccccc13)[C@@](C(=O)OC)(c1cc3c(cc1OC)N(C)[C@H]1[C@@](O)(C(=O)OC)[C@H](OC(C)=O)[C@]4(CC)C=CCN5CC[C@]31[C@@H]54)C2 [Vinorelbine]; conditions: top dose 0.064 µM; top dose inferred
Experimental: as §1

XL-184 = compound: COc1cc2nccc(Oc3ccc(NC(=O)C4(C(=O)Nc5ccc(F)cc5)CC4)cc3)c2cc1OC [XL-184]; conditions: top dose 5.12 µM; top dose inferred
Experimental: as §1

EHT 1864 = compound: O=c1cc(CN2CCOCC2)occ1OCCCCCSc1ccnc2cc(C(F)(F)F)ccc12 [EHT 1864]; conditions: top dose 10 µM; top dose inferred
Experimental: as §1

Phenformin = compound: N=C(N)NC(=N)NCCc1ccccc1 [Phenformin]; conditions: top dose 4000 µM; top dose inferred
Experimental: as §1

WHI-P97 = compound: COc1cc2ncnc(Nc3cc(Br)c(O)c(Br)c3)c2cc1OC [WHI-P97]; conditions: top dose 10.24 µM; top dose inferred
Experimental: as §1

NU-7441 = compound: O=c1cc(N2CCOCC2)oc2c(-c3cccc4c3sc3ccccc34)cccc12 [NU-7441]; conditions: top dose 2 µM; top dose inferred
Experimental: as §1

Cell Line	AUC (S-Trityl-L-cysteine)	IC50 (S-Trityl-L-cysteine)	AUC (AG-014699)	IC50 (AG-014699)	AUC (QL-XI-92)	IC50 (QL-XI-92)	AUC (Vinorelbine)	IC50 (Vinorelbine)	AUC (XL-184)	IC50 (XL-184)	AUC (EHT 1864)	IC50 (EHT 1864)	AUC (Phenformin)	IC50 (Phenformin)	AUC (WHI-P97)	IC50 (WHI-P97)	AUC (NU-7441)	IC50 (NU-7441)
IST-MES1 (mesothelioma, adherent)	0.94	> 5.12 µM	0.943	> 5 µM	0.975	> 10.2 µM	0.909	> 0.064 µM	0.885	> 5.12 µM	0.85	7.7 µM	0.91	> 4000 µM	0.974	> 10.2 µM	–	–
JAR (urogenital system, adherent)	0.619	0.676 µM	0.974	> 5 µM	0.926	> 10.2 µM	0.89	> 0.064 µM	0.984	> 5.12 µM	0.904	> 10 µM	0.862	3290 µM	0.969	> 10.2 µM	0.982	> 2 µM
KALS-1 (glioma, adherent)	0.692	1.36 µM	0.969	> 5 µM	0.92	> 10.2 µM	0.531	0.00501 µM	0.953	> 5.12 µM	0.94	> 10 µM	0.532	315 µM	0.957	> 10.2 µM	–	–
KG-1 (acute myeloid leukaemia, suspension)	0.99	> 5.12 µM	0.982	> 5 µM	0.846	6.31 µM	0.936	> 0.064 µM	0.831	2.79 µM	0.958	> 10 µM	0.433	168 µM	0.935	> 10.2 µM	0.987	> 2 µM
LC-2-ad (lung adenocarcinoma, adherent)	0.605	0.625 µM	0.975	> 5 µM	0.959	> 10.2 µM	0.362	0.00165 µM	0.809	2.75 µM	0.982	> 10 µM	0.668	745 µM	0.894	> 10.2 µM	0.985	> 2 µM
LNCaP-Clone-FGC (prostate, adherent)	0.98	> 5.12 µM	0.959	> 5 µM	0.896	> 10.2 µM	0.743	0.0222 µM	0.908	> 5.12 µM	0.914	> 10 µM	0.745	1410 µM	0.961	> 10.2 µM	0.95	> 2 µM
LS-411N (large intestine, adherent)	0.723	1.6 µM	0.964	> 5 µM	0.935	> 10.2 µM	–	–	–	–	0.939	> 10 µM	0.375	105 µM	0.979	> 10.2 µM	0.971	> 2 µM
MV-4-11 (leukaemia, suspension)	0.561	0.456 µM	0.919	> 5 µM	0.843	5.45 µM	0.611	0.0076 µM	–	–	0.9	8.73 µM	0.146	27 µM	0.859	6.18 µM	0.844	1.07 µM
